# Results as given in the supplement of paper PMC12423691.
# This is one part of the list. Binding of human transcription factors and regulators to the viral nucleoprotein by AlphaScreen, crude cell-free proteins, amounts not normalised, one pass. Fold of the Venus control; higher = more signal. No active / inactive call. Single-pass screen; sequences are the whole Swiss-Prot entries looked up by name.
# B1: RFXAP, O00287 (protein)
# chain: MEAQGVAEGAGPGAASGVPHPAALAPAAAPTLAPASVAAAASQFTLLVMQPCAGQDEAAAPGGSVGAGKPVRYLCEGAGDGEEEAGEDEADLLDTSDPPGGGESAASLEDLEDEETHSGGEGSSGGARRRGSGGGSMSKTCTYEGCSETTSQVAKQRKPWMCKKHRNKMYKDKYKKKKSDQALNCGGTASTGSAGNVKLEESADNILSIVKQRTGSFGDRPARPTLLEQVLNQKRLSLLRSPEVVQFLQKQQQLLNQQVLEQRQQQFPGTSM
# B2: DDN, O94850 (protein)
# chain: MLDGPLFSEGPDSPRELQDEESGSCLWVQKSKLLVIEVKTISCHYSRRAPSRQPMDFQASHWARGFQNRTCGPRPGSPQPPPRRPWASRVLQEATNWRAGPLAEVRAREQEKRKAASQEREAKETERKRRKAGGARRSPPGRPRPEPRNAPRVAQLAGLPAPLRPERLAPVGRAPRPSAQPQSDPGSAWAGPWGGRRPGPPSYEAHLLLRGSAGTAPRRRWDRPPPYVAPPSYEGPHRTLGTKRGPGNSQVPTSSAPAATPARTDGGRTKKRLDPRIYRDVLGAWGLRQGQGLLGGSPGCGAARARPEPGKGVVEKSLGLAAADLNSGSDSHPQAKATGSAGTEIAPAGSATAAPCAPHPAPRSRHHLKGSREGKEGEQIWFPKCWIPSPKKQPPRHSQTLPRPWAPGGTGWRESLGLGEGAGPETLEGWKATRRAHTLPRSSQGLSRGEGVFVIDATCVVIRSQYVPTPRTQQVQLLPSGVTRVVGDSPSQSKPGKEEGEGATVFPSPCQKRLSSSRLLHQPGGGRGGEAEGGRPGDSTLEERTFRILGLPAPEVNLRDAPTQPGSPEHQALGPAASGAQGRAEGSEVAVVQRRAGRGWARTPGPYAGALREAVSRIRRHTAPDSDTDEAEELSVHSGSSDGSDTEAPGASWRNERTLPEVGNSSPEEDGKTAELSDSVGEILDVISQTEEVLFGVRDIRGTQQGNRKRQ
# B3: GLI2, P10070 (protein)
# chain: METSASATASEKQEAKSGILEAAGFPDPGKKASPLVVAAAAAAAVAAQGVPQHLLPPFHAPLPIDMRHQEGRYHYEPHSVHGVHGPPALSGSPVISDISLIRLSPHPAGPGESPFNAPHPYVNPHMEHYLRSVHSSPTLSMISAARGLSPADVAQEHLKERGLFGLPAPGTTPSDYYHQMTLVAGHPAPYGDLLMQSGGAASAPHLHDYLNPVDVSRFSSPRVTPRLSRKRALSISPLSDASLDLQRMIRTSPNSLVAYINNSRSSSAASGSYGHLSAGALSPAFTFPHPINPVAYQQILSQQRGLGSAFGHTPPLIQPSPTFLAQQPMALTSINATPTQLSSSSNCLSDTNQNKQSSESAVSSTVNPVAIHKRSKVKTEPEGLRPASPLALTQGQVSGHGSCGCALPLSQEQLADLKEDLDRDDCKQEAEVVIYETNCHWEDCTKEYDTQEQLVHHINNEHIHGEKKEFVCRWQACTREQKPFKAQYMLVVHMRRHTGEKPHKCTFEGCSKAYSRLENLKTHLRSHTGEKPYVCEHEGCNKAFSNASDRAKHQNRTHSNEKPYICKIPGCTKRYTDPSSLRKHVKTVHGPDAHVTKKQRNDVHLRTPLLKENGDSEAGTEPGGPESTEASSTSQAVEDCLHVRAIKTESSGLCQSSPGAQSSCSSEPSPLGSAPNNDSGVEMPGTGPGSLGDLTALDDTPPGADTSALAAPSAGGLQLRKHMTTMHRFEQLKKEKLKSLKDSCSWAGPTPHTRNTKLPPLPGSGSILENFSGSGGGGPAGLLPNPRLSELSASEVTMLSQLQERRDSSTSTVSSAYTVSRRSSGISPYFSSRRSSEASPLGAGRPHNASSADSYDPISTDASRRSSEASQCSGGSGLLNLTPAQQYSLRAKYAAATGGPPPTPLPGLERMSLRTRLALLDAPERTLPAGCPRPLGPRRGSDGPTYGHGHAGAAPAFPHEAPGGGARRASDPVRRPDALSLPRVQRFHSTHNVNPGPLPPCADRRGLRLQSHPSTDGGLARGAYSPRPPSISENVAMEAVAAGVDGAGPEADLGLPEDDLVLPDDVVQYIKAHASGALDEGTGQVYPTESTGFSDNPRLPSPGLHGQRRMVAADSNVGPSAPMLGGCQLGFGAPSSLNKNNMPVQWNEVSSGTVDALASQVKPPPFPQGNLAVVQQKPAFGQYPGYSPQGLQASPGGLDSTQPHLQPRSGAPSQGIPRVNYMQQLRQPVAGSQCPGMTTTMSPHACYGQVHPQLSPSTISGALNQFPQSCSNMPAKPGHLGHPQQTEVAPDPTTMGNRHRELGVPDSALAGVPPPHPVQSYPQQSHHLAASMSQEGYHQVPSLLPARQPGFMEPQTGPMGVATAGFGLVQPRPPLEPSPTGRHRGVRAVQQQLAYARATGHAMAAMPSSQETAEAVPKGAMGNMGSVPPQPPPQDAGGAPDHSMLYYYGQIHMYEQDGGLENLGSCQVMRSQPPQPQACQDSIQPQPLPSPGVNQVSSTVDSQLLEAPQIDFDAIMDDGDHSSLFSGALSPSLLHSLSQNSSRLTTPRNSLTLPSIPAGISNMAVGDMSSMLTSLAEESKFLNMMT
# B4: TSC22D3, Q99576 (protein)
# chain: MNTEMYQTPMEVAVYQLHNFSISFFSSLLGGDVVSVKLDNSASGASVVAIDNKIEQAMDLVKNHLMYAVREEVEILKEQIRELVEKNSQLERENTLLKTLASPEQLEKFQSCLSPEEPAPESPQVPEAPGGSAV
# B5: MLXIPL, Q9NP71 (protein)
# chain: MAGALAGLAAGLQVPRVAPSPDSDSDTDSEDPSLRRSAGGLLRSQVIHSGHFMVSSPHSDSLPRRRDQEGSVGPSDFGPRSIDPTLTRLFECLSLAYSGKLVSPKWKNFKGLKLLCRDKIRLNNAIWRAWYIQYVKRRKSPVCGFVTPLQGPEADAHRKPEAVVLEGNYWKRRIEVVMREYHKWRIYYKKRLRKPSREDDLLAPKQAEGRWPPPEQWCKQLFSSVVPVLLGDPEEEPGGRQLLDLNCFLSDISDTLFTMTQSGPSPLQLPPEDAYVGNADMIQPDLTPLQPSLDDFMDISDFFTNSRLPQPPMPSNFPEPPSFSPVVDSLFSSGTLGPEVPPASSAMTHLSGHSRLQARNSCPGPLDSSAFLSSDFLLPEDPKPRLPPPPVPPPLLHYPPPAKVPGLEPCPPPPFPPMAPPTALLQEEPLFSPRFPFPTVPPAPGVSPLPAPAAFPPTPQSVPSPAPTPFPIELLPLGYSEPAFGPCFSMPRGKPPAPSPRGQKASPPTLAPATASPPTTAGSNNPCLTQLLTAAKPEQALEPPLVSSTLLRSPGSPQETVPEFPCTFLPPTPAPTPPRPPPGPATLAPSRPLLVPKAERLSPPAPSGSERRLSGDLSSMPGPGTLSVRVSPPQPILSRGRPDSNKTENRRITHISAEQKRRFNIKLGFDTLHGLVSTLSAQPSLKVSKATTLQKTAEYILMLQQERAGLQEEAQQLRDEIEELNAAINLCQQQLPATGVPITHQRFDQMRDMFDDYVRTRTLHNWKFWVFSILIRPLFESFNGMVSTASVHTLRQTSLAWLDQYCSLPALRPTVLNSLRQLGTSTSILTDPGRIPEQATRAVTEGTLGKPL
# Target: nucleoprotein N of Crimean-Congo hemorrhagic fever virus
# Experiment: AlphaScreen luminescence signal relative to Venus negative control (fold); higher = stronger binding to CCHFV N
# Method: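 AlphaScreen binding of cell-free made, FLAG-GST-tagged human transcription factors and regulators (crude translation products) to biotinylated N protein; signal as fold of the FLAG-GST-Venus control. One pass.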
row,Binder,AlphaScreen luminescence signal
1,B1,18.3
2,B2,2.37
3,B3,3.44
4,B4,1.26
5,B5,2.05
